This note sets out measurements from paper PMC8406179.

By UniProt entry, the sequences of proteins in these tests, tags left out.
UniProt P03129: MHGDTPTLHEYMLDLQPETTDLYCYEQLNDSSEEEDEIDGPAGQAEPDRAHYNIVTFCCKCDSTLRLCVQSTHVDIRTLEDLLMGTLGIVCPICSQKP

These are yes or no findings as the source states them, for the method shown. In cells and extracts the contact can be indirect. Some binding calls cover weakened binding; strength is not graded here. For some assays here: Where a sequence is shown, tags or fusion partners need not be part of it.

Assay [1] addresses FLAG/HA epitope-tagged HPV16 E7 (human papillomavirus type 16) (UniProt P03129). The assay is described as follows: co-IP; SAOS-2 cells cotransfected with HA-tagged RB1 (1-928, 379-928 or 1-792) and FLAG/HA-tagged MmuPV1 E7 or HPV16 E7; immunoprecipitation with FLAG antibodies, HA immunoblot. In general terms: Immunoblotting shows a protein as a band on a membrane.
The target is the same in assay [2]. The assay is described as follows: co-IP; SAOS-2 cells cotransfected with wild-type RB1 or RB1^L and MmuPV1 E7 or HPV16 E7 expression vectors.

Take “HA-epitope tagged RB1 truncation mutant 1-792 (lacking the C terminus) (from UniProt P06400 1-792) (domain or fragment)”: the binding entry in assay [1] is “binds”.

B1: HA-epitope tagged RB1 truncation mutant 379-928 (lacking the amino terminus) (domain or fragment, UniProt P06400 379-928)
chain: MNTIQQLMMILNSASDQPSENLISYFNNCTVNPKESILKRVKDIGYIFKEKFAKAVGQGCVEIGSQRYKLGVRLYYRVMESMLKSEEERLSIQNFSKLLNDNIFHMSLLACALEVVMATYSRSTSQNLDSGTDLSFPWILNVLNLKAFDFYKVIESFIKAEGNLTREMIKHLERCEHRIMESLAWLSDSPLFDLIKQSKDREGPTDHLESACPLNLPLQNNHTAADMYLSPVRSPKKKGSTTRVNSTANAETQATSAFQTQKPLKSTSLSLFYKKVYRLAYLRLNTLCERLLSEHPELEHIIWTLFQHTLQNEYELMRDRHLDQIMMCSMYGICKVKNIDLKFKIIVTAYKDLPHAVQETFKRVLIKEEEYDSIIVFYNSVFMQRLKTNILQYASTRPPTLSPIPHIPRSPYKFPSSPLRIPGGNIYISPLKSPYKISEGLPTPTKMTPRSRILVSIGESFGTSEKFQKINQMVCNSDRVLKRSAEGSNPPKPLKKLRFDIEGSDEADGSKHLPGESKFQQKLAEMTSTRTRMQKQKMNDSMDTSNKEEK
In the case of B1, the binding entry in assay [1] is “binds”.

B2: wild-type RB1 (expression vector, SAOS-2) (protein, UniProt P06400 1-928)
chain: MPPKTPRKTAATAAAAAAEPPAPPPPPPPEEDPEQDSGPEDLPLVRLEFEETEEPDFTALCQKLKIPDHVRERAWLTWEKVSSVDGVLGGYIQKKKELWGICIFIAAVDLDEMSFTFTELQKNIEISVHKFFNLLKEIDTSTKVDNAMSRLLKKYDVLFALFSKLERTCELIYLTQPSSSISTEINSALVLKVSWITFLLAKGEVLQMEDDLVISFQLMLCVLDYFIKLSPPMLLKEPYKTAVIPINGSPRTPRRGQNRSARIAKQLENDTRIIEVLCKEHECNIDEVKNVYFKNFIPFMNSLGLVTSNGLPEVENLSKRYEEIYLKNKDLDARLFLDHDKTLQTDSIDSFETQRTPRKSNLDEEVNVIPPHTPVRTVMNTIQQLMMILNSASDQPSENLISYFNNCTVNPKESILKRVKDIGYIFKEKFAKAVGQGCVEIGSQRYKLGVRLYYRVMESMLKSEEERLSIQNFSKLLNDNIFHMSLLACALEVVMATYSRSTSQNLDSGTDLSFPWILNVLNLKAFDFYKVIESFIKAEGNLTREMIKHLERCEHRIMESLAWLSDSPLFDLIKQSKDREGPTDHLESACPLNLPLQNNHTAADMYLSPVRSPKKKGSTTRVNSTANAETQATSAFQTQKPLKSTSLSLFYKKVYRLAYLRLNTLCERLLSEHPELEHIIWTLFQHTLQNEYELMRDRHLDQIMMCSMYGICKVKNIDLKFKIIVTAYKDLPHAVQETFKRVLIKEEEYDSIIVFYNSVFMQRLKTNILQYASTRPPTLSPIPHIPRSPYKFPSSPLRIPGGNIYISPLKSPYKISEGLPTPTKMTPRSRILVSIGESFGTSEKFQKINQMVCNSDRVLKRSAEGSNPPKPLKKLRFDIEGSDEADGSKHLPGESKFQQKLAEMTSTRTRMQKQKMNDSMDTSNKEEK
On to B2, for which, in assay [2], the binding result was “binds”.

B3: HA-epitope tagged full-length RB1 (amino acid residues 1 to 928) (protein, UniProt P06400 1-928)
chain: MPPKTPRKTAATAAAAAAEPPAPPPPPPPEEDPEQDSGPEDLPLVRLEFEETEEPDFTALCQKLKIPDHVRERAWLTWEKVSSVDGVLGGYIQKKKELWGICIFIAAVDLDEMSFTFTELQKNIEISVHKFFNLLKEIDTSTKVDNAMSRLLKKYDVLFALFSKLERTCELIYLTQPSSSISTEINSALVLKVSWITFLLAKGEVLQMEDDLVISFQLMLCVLDYFIKLSPPMLLKEPYKTAVIPINGSPRTPRRGQNRSARIAKQLENDTRIIEVLCKEHECNIDEVKNVYFKNFIPFMNSLGLVTSNGLPEVENLSKRYEEIYLKNKDLDARLFLDHDKTLQTDSIDSFETQRTPRKSNLDEEVNVIPPHTPVRTVMNTIQQLMMILNSASDQPSENLISYFNNCTVNPKESILKRVKDIGYIFKEKFAKAVGQGCVEIGSQRYKLGVRLYYRVMESMLKSEEERLSIQNFSKLLNDNIFHMSLLACALEVVMATYSRSTSQNLDSGTDLSFPWILNVLNLKAFDFYKVIESFIKAEGNLTREMIKHLERCEHRIMESLAWLSDSPLFDLIKQSKDREGPTDHLESACPLNLPLQNNHTAADMYLSPVRSPKKKGSTTRVNSTANAETQATSAFQTQKPLKSTSLSLFYKKVYRLAYLRLNTLCERLLSEHPELEHIIWTLFQHTLQNEYELMRDRHLDQIMMCSMYGICKVKNIDLKFKIIVTAYKDLPHAVQETFKRVLIKEEEYDSIIVFYNSVFMQRLKTNILQYASTRPPTLSPIPHIPRSPYKFPSSPLRIPGGNIYISPLKSPYKISEGLPTPTKMTPRSRILVSIGESFGTSEKFQKINQMVCNSDRVLKRSAEGSNPPKPLKKLRFDIEGSDEADGSKHLPGESKFQQKLAEMTSTRTRMQKQKMNDSMDTSNKEEK
Take B3: the binding result in assay [1] is given as “binds”.

B4: RB1^L mutant (I753A; N757A; M761A), LXCXE binding-defective RB1 (protein, UniProt P06400 1-928)
chain: MPPKTPRKTAATAAAAAAEPPAPPPPPPPEEDPEQDSGPEDLPLVRLEFEETEEPDFTALCQKLKIPDHVRERAWLTWEKVSSVDGVLGGYIQKKKELWGICIFIAAVDLDEMSFTFTELQKNIEISVHKFFNLLKEIDTSTKVDNAMSRLLKKYDVLFALFSKLERTCELIYLTQPSSSISTEINSALVLKVSWITFLLAKGEVLQMEDDLVISFQLMLCVLDYFIKLSPPMLLKEPYKTAVIPINGSPRTPRRGQNRSARIAKQLENDTRIIEVLCKEHECNIDEVKNVYFKNFIPFMNSLGLVTSNGLPEVENLSKRYEEIYLKNKDLDARLFLDHDKTLQTDSIDSFETQRTPRKSNLDEEVNVIPPHTPVRTVMNTIQQLMMILNSASDQPSENLISYFNNCTVNPKESILKRVKDIGYIFKEKFAKAVGQGCVEIGSQRYKLGVRLYYRVMESMLKSEEERLSIQNFSKLLNDNIFHMSLLACALEVVMATYSRSTSQNLDSGTDLSFPWILNVLNLKAFDFYKVIESFIKAEGNLTREMIKHLERCEHRIMESLAWLSDSPLFDLIKQSKDREGPTDHLESACPLNLPLQNNHTAADMYLSPVRSPKKKGSTTRVNSTANAETQATSAFQTQKPLKSTSLSLFYKKVYRLAYLRLNTLCERLLSEHPELEHIIWTLFQHTLQNEYELMRDRHLDQIMMCSMYGICKVKNIDLKFKIIVTAYKDLPHAVQETFKRVLIKEEEYDSIAVFYASVFAQRLKTNILQYASTRPPTLSPIPHIPRSPYKFPSSPLRIPGGNIYISPLKSPYKISEGLPTPTKMTPRSRILVSIGESFGTSEKFQKINQMVCNSDRVLKRSAEGSNPPKPLKKLRFDIEGSDEADGSKHLPGESKFQQKLAEMTSTRTRMQKQKMNDSMDTSNKEEK
As for B4, in assay [2], the binding result is “no binding”.
